Measurements as given in ChEMBL document CHEMBL4888484, “Replenishing the malaria drug discovery pipeline: Screening and hit evaluation of the MMV Hit Generation Library 1 (HGL1) against asexual blood stage Plasmodium falciparum ,using a nano luciferase reporter read-out” (2022).
About 540 (0.36%) of roughly 150,000 compounds showed an effect of 50% or more. Some of the results follow.

tested on: Plasmodium falciparum; assay: Primary screen in NF54 nanoGlo assay, in single point, at 2uM, 72h; a lower Z score goes with more inhibition; format: functional, Erythrocyte; settings: timepoint 72 hour

| SMILES | % Inhibition [%] | Z score |
| --- | --- | --- |
| CC(C)(C)[C@@H](O)CNc1ccc(Cl)cc1C#N | 7 | -0.87 |
| CCCn1ncc(C(=O)NCCc2nc(C3CC3)no2)c1C | -9 | 1.55 |
| Cc1ncc(C)c(NCC2(CO)CCCC2)n1 | 2 | -0.31 |
| CCCCOc1ccc(Br)cc1C(=O)NC | -11 | 1.02 |
| O=S(=O)(c1ccc(-c2noc(/C=C/c3ccccc3Cl)n2)cc1)N1CCCCC1 | 2 | -0.4 |
| Cc1cc(Cn2cc(F)ccc2=O)no1 | -2 | 0.28 |
| CN(C(=O)c1cccc2c1OCC2(C)C)[C@H]1CCCc2c1cnn2C | -5 | 0.64 |
| CN1CCN(C[C@@H]2CN(C(=O)c3cc4c(Cl)cccc4[nH]3)C[C@@H]2CO)CC1 | -3 | 0.6 |
| O=C(Nc1ccc(N2CCOCC2)cc1)C1CCN(S(=O)(=O)c2ccc(-c3ccn[nH]3)o2)CC1 | -18 | 2.9 |
| O=C(NCc1ccc(C2CC2)nc1)Nc1cccs1 | 21 | -2.65 |
| Cc1nc(-c2ccccc2NS(=O)(=O)C2CC2)cs1 | -9 | 0.99 |
| Cc1ncc(C(=O)N2C[C@H]3CC[C@@H](C2)N(Cc2ccccn2)C3)c(C)n1 | -6 | 0.75 |
| OC[C@@]1(CCOc2ccccc2)CCCN(c2nnnn2-c2ccccc2)C1 | 14 | -1.84 |
| COc1ccc(C(CO)CNC2[C@@H]3CCC[C@@H]3C2(C)C)cc1 (stereo partly drawn) | 0 | -0.02 |
| Cc1cccc(CNC(=O)c2cc(Cn3c(C)nc4ccccc43)on2)n1 | -10 | 1.1 |
| O=C(Nc1nc(-c2ccc(Cl)cc2)cs1)[C@H]1CCS(=O)(=O)C1 | 0 | 0.06 |
| CC(NC(=O)N1CCCC(C2CCCCO2)C1)c1ncc(Br)cn1 (stereo not drawn) | -11 | 2.37 |
| CCn1ccnc1[C@H](CCc1ccccc1)OC(=O)c1cncn1C | -3 | 0.35 |
| Cc1ccc(CNc2ccncc2F)o1 | 1 | -0.08 |
| CCCCN(C)Cc1ccc(OC[C@@H](O)CN(CC)CC)c(OC)c1 | -2 | 0.29 |
| O=C(NCC1CCN(Cc2ccc(-c3ccccc3Cl)o2)CC1)[C@H]1CCOC1 | -7 | 1.21 |
| Cc1ccc(F)cc1C=Cc1nc2cnccc2c(=O)[nH]1 | -6 | 0.99 |
| CC(C)NC1CCN(C[C@H](O)c2cccc3ccccc23)CC1 | 18 | -2.16 |
| Cc1nnc(CCNc2cc(C(C)C)ncn2)n1C | -39 | 4.57 |
| CNc1nc2c(c(C(=O)N3CCCC3)n1)CN(Cc1ccc(C)s1)CC2 | -15 | 1.69 |
| CCCN1CCN(C(=O)c2cnn(-c3nccc(-c4cccc(OC)c4)n3)c2C2CC2)CC1 | -10 | 1.29 |
| O=S1(=O)CCN(C2CCN(CC(F)(F)F)CC2)CC1 | -3 | 0.36 |

| SMILES | % Inhibition [%] | Z score |
| --- | --- | --- |
| O=C(C[C@@H](c1cccc(Cl)c1)c1ccccc1O)NCc1ccncc1 | -9 | 1.1 |
| Cc1noc(C)c1CN1C[C@H]2CC[C@@H](C1)N(Cc1ccc3c(c1)OCCO3)C2 | -1 | 0.11 |
| Cc1cnc(NC(=O)c2ccc(OCC(F)F)nc2)[nH]1 | -1 | 0.11 |
| CC1CCC(N2C[C@@H](C(=O)OCC3(C)COC3)CC2=O)CC1 (stereo partly drawn) | -17 | 2.28 |
| CNCc1cccc(Br)c1OCCS(C)(=O)=O | -14 | 1.62 |
| CCN1C(=O)c2c(C(=O)NCc3cccc(F)c3)ncn2C[C@@]1(C)C(=O)NC1CCCC1 | -9 | 1.78 |
| O=C(CN1C(=O)c2cccnc2Oc2ccccc21)N1CCc2ccccc21 | -11 | 1.41 |
| COc1cccc(CC(=O)N2CC(n3ccnc3)C2)c1 | -1 | 0.09 |
| CC(C)(C)c1oc(C(N)=O)cc1CN1CC[C@H]1c1ccc(F)cc1 | -14 | 1.98 |
| CN[C@@H](c1ccc(F)cc1)c1cnccn1 | 0 | -0.03 |
| Cc1nc2ccc(Cl)cc2c(-c2ccccc2)c1C1=NN(C(=O)CCC(=O)O)[C@H](c2ccc(Cl)cc2)C1 | -13 | 2.14 |
| O=C(c1ccccn1)N1CC[C@H](Nc2noc(-c3ccccc3)n2)[C@@H](O)C1 | 5 | -0.71 |
| Cc1ccnc(CNC(=O)c2cncn2C)c1 | -3 | 0.51 |
| O=C(NCc1cncc(O)c1)[C@@H]1CCCC[C@@H]1c1ccccc1 | -16 | 3.12 |
| Cc1c(NC(=O)c2occ3c2CCOC3)cnn1C | -13 | 1.96 |
| CS(=O)(=O)c1ccc(NC[C@]2(O)CCCc3ccccc32)cc1 | 2 | -0.33 |
| CC1(C)CS(=O)(=O)N(c2cccc(C(=O)N3CCN(Cc4ccccc4)CC3)c2)C1=O | -4 | 0.47 |
| O=C(Nc1ccccc1)N(Cc1cccs1)C1CCCC1 | -5 | 0.69 |
| C[C@H](C(=O)NCc1nccs1)C1CCOCC1 | -7 | 1.01 |
| CN(C)c1ccc(NC(=O)Cn2cnc3ccccc32)cc1 | -13 | 1.73 |
| CCC(=O)Nc1ccc(N(C)C)c(CN(C(=O)C(C)C)[C@@H](C)CC)c1 | -2 | 0.29 |
| CC(=O)c1ccn(-c2cncc3ccccc23)n1 | 1 | -0.08 |
| CCN(CC)C(=O)c1cnn(-c2ncc(C)c(-c3cccs3)n2)c1C1CC1 | -8 | 1.04 |
| CCn1cncc1CNC(=O)N1CCN(Cc2cccc(C)c2)C(=O)[C@@H]1C | 10 | -1.11 |
| O=C(NCc1ccc(-c2ccco2)o1)C(=O)Nc1ccccc1C(F)(F)F | -1 | 0.1 |
| Cc1nc(C)c(C(=O)NCc2ccc3[nH]c(NC(=O)c4sc(C)nc4C)nc3c2)s1 | -35 | 4.1 |
| CC[C@H](C)N(Cc1cccc(OS(=O)(=O)c2cccc(C(F)(F)F)c2)c1)C(=O)C1CCC1 | 0 | 0.02 |
